The source of these data is patent publication US20230135723A1, “ANTI-CD98 ANTIBODIES AND ANTIBODY DRUG CONJUGATES” (AbbVie Inc., priority 2016, published 2023).

Assay [1] relates to NCI-H146 (human small cell lung cancer) xenograft. Briefly: NCI-H146 xenograft tumor growth inhibition. Format: in vivo, mice. The settings on record: 10 mg/kg/day QDx1 IP, N 8. As to the method:
The in vivo anti-tumor efficacy of selected humanized anti-CD98 mAb conjugates were tested in NCI-H146 (human small cell lung cancer) xenograft model, as described in Example 6. Tumor growth inhibition was reported as TGImax in Table 28.

The test system of assay [2] is EBC-1 (human lung squamous cell carcinoma) xenograft. In words: EBC-1 xenograft tumor growth inhibition. Format: in vivo. The note with it: 10 mg/kg/day IP QDx1, SCID-bg mice.

Marks after values point to notes of the source that are not given here.

B1: CD98 (CL-huAb102)-XW (conjugate)
heavy: EVQLVESGGGLVQPGGSLRLSCATSGFTFIDYYMSWVRQAPGKGLEWLGFIRNKANRYTTEYSASVKGRFTISRDNSKSILYLQMNSLKTEDTAVYYCTRDRPAWFVYWGQGTLVTVSSASTKGPSVFPLAPSSKSTSGGTAALGCLVKDYFPEPVTVSWNSGALTSGVHTFPAVLQSSGLYSLSSVVTVPSSSLGTQTYICNVNHKPSNTKVDKKV[human IgG1 Fc with changes omitted here]
light: DIVMTQTPLSLPVTPGEPASISCKSSQSLLYSSNQKNYLAWYLQKPGQSPQLLIYWASTRESGVPDRFSGSGSGTDFTLKISRVEAEDVGVYYCQQYYSYPYTFGGGTKVEIKRTVAAPSVFIFPPSDEQLKSGTASVVCLLNNFYPREAKVQWKVDNALQSGNSQESVTEQDSKDSTYSLSSTLTLSKADYEKHKVYACEVTHQGLSSPVTKSFNRGEC
In the case of B1, the “TGImax (%)” value in assay [1] amounted to 55%.

B2: ChAb4-CZ (conjugate)
VH: EVKLVESGGGLVQPGGSLRLSCTTSGFTFTDYYMSWVRQPPGKALEWLGFIRNKATIYTTEYSASVKGRFTISRDNSQSILYLQMNTLRAEDSATYYCARASYGNSEGWFAYWGQGTLVTVSA
VL: DIVMSQSPSSLAVSVGEKVTMS[about 80 residues omitted here]FGGGTKLEIK
Turning to B2, in assay [2], the “Growth Inhibition TGD (%)” value is 37* %, the “Growth Inhibition TGImax (%)” value is listed as 63* %, the “Response Frequency CR (%)” value is 0% and the “Response Frequency OR (%)” value is 0%. Moreover, in assay [2], the “Response Frequency PR (%)” value came out at 0%.
